Among all 310,000 compounds or so, about 14,000 (4.5%) showed an effect of 50% or more. The effect is printed as a negative number. The list shows a part of the results.
What follows are compounds tested against human ether-à-go-go-related gene (hERG) potassium channel (human, UniProt Q12809) (assay: primary screen, population patch clamp on CHO cells stably expressing hERG).
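Note: peak tail current of the secondary pulse compared with the same well before compound.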

Sequence of human ether-à-go-go-related gene (hERG) potassium channel (Q12809 whole entry, looked up): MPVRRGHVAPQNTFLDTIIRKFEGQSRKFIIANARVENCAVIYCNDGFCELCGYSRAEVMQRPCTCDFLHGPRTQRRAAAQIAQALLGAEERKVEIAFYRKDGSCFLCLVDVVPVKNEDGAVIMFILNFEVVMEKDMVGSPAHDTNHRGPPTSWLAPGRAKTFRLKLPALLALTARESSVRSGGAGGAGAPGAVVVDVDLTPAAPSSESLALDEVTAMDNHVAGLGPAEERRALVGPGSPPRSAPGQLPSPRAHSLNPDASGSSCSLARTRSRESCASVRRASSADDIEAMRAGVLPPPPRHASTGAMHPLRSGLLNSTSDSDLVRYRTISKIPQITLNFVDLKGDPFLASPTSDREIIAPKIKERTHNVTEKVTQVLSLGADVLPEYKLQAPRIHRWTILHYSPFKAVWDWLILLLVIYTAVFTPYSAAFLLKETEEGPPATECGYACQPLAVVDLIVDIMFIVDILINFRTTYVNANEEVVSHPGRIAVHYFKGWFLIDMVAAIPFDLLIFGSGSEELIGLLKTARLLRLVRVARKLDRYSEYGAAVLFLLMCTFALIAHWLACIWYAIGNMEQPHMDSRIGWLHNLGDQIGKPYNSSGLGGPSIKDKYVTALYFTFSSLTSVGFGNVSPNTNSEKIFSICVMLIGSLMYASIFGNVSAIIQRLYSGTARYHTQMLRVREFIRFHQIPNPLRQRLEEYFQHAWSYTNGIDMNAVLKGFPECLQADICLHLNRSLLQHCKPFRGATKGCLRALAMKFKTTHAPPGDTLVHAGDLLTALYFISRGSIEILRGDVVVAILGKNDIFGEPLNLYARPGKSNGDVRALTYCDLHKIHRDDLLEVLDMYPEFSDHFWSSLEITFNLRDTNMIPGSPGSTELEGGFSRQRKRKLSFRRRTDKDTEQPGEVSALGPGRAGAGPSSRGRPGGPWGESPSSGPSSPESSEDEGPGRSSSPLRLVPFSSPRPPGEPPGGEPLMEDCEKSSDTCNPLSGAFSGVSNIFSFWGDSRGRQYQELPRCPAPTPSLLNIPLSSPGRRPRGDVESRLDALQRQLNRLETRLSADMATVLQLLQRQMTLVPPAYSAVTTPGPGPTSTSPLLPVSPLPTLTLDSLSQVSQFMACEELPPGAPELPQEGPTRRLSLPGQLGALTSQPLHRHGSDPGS

Structure (SMILES) | hERG current change (%, negative = inhibition) at 10uM
CCCc1c(C(=O)Nc2ccc(C(F)(F)F)cc2)cnn1-c1ccccc1 | 15.4%
S=C(NC1CCCCC1)N1CCc2ccccc2C1 | -5.33%
O=C(NCc1cccs1)C1CCC(CNS(=O)(=O)c2cccs2)CC1 (centres unmarked) | -2.36%
CN(Cc1ccccc1)S(=O)(=O)c1nnc(NC(=O)c2ccccc2F)s1 | 1.89%
CCc1ccc(NC(=O)CN(c2ccc3c(c2)OCO3)S(=O)(=O)c2c(C)noc2C)cc1 | 8.49%
Cc1ccc(S(=O)(=O)N2CCN(Cc3ccccc3)CC2)c(C)c1N(C)S(=O)(=O)c1ccccc1 | 5.81%
Cc1cc(=O)oc2c(C)c(OC(C)C(=O)NCc3ccccn3)ccc12 (centres unmarked) | -6.72%
CS(=O)(=O)N1CCC(C(=O)Nc2cccc(Cl)c2)CC1 | 2.18%
CC1CCCCC1Nc1ncnc2sccc12 (centres unmarked) | -10.8%
COc1cccc(-c2nnc(-c3ccco3)o2)c1 | -9.51%
CCn1cc(C(=O)NC2CCC(C)CC2)c(=O)c2cc(S(=O)(=O)N3CCCCC3)ccc21 (centres unmarked) | -22.5%
c1ccc2nc(-c3nccs3)ccc2c1 | 2.23%
CC1CCCCC1NC(=O)COC(=O)Cc1ccc(Cl)cc1 (centres unmarked) | 15.2%
Cc1ccc(-n2nc3c(=O)n(CCCC(=O)N4CCC(C(N)=O)CC4)nc(C)c3c2C)cc1 | 13.1%
Cc1ccc(C(=O)NC2CC3CCCC(C2)N3Cc2ccccc2)cc1 (centres unmarked) | -40.4%
COc1ccccc1NC(=S)NCCc1ccccc1 | -17.3%
Cc1nc(NCC2CCCO2)c2nnn(Cc3c(F)cccc3Cl)c2n1 (centres unmarked) | 13.3%
CSc1ccc(CCNS(=O)(=O)c2ccc3c(c2)C(C)(C)C(=O)N3C)cc1 | -19.1%
CCC(C)NC(=O)Cn1cnc2sc(C)c(S(=O)(=O)N3CCN(c4ccccc4OC)CC3)c2c1=O (centres unmarked) | 21.8%
CC(C)NS(=O)(=O)c1ccc(NC(=O)c2cccnc2)cc1 | 8.45%
O=C(COC(=O)c1ccc2c(c1)OCO2)Nc1ccccc1Cl | 8.17%
O=c1nc2sc3ccccc3n2c(=O)n1-c1cccc(Cl)c1 | 1.38%
C/C(=N/NC(=O)C(C)n1nc(C)c([N+](=O)[O-])c1C)c1ccc(OCC(N)=O)cc1 (centres unmarked) | 9.03%

Structure (SMILES) | hERG current change (%, negative = inhibition) at 10uM
Cc1ccccc1-n1c(C)cc(/C=C2/C(=O)NC(=O)N(Cc3ccco3)C2=O)c1C | 5.64%
CC(=O)Nc1ccc(N2CCCCC2)cc1 | 7.26%
CC(=O)c1cccc(NC(=O)Nc2nc(C)cc(C)n2)c1 | 17%
CN(C)C(CNc1ccc(S(C)(=O)=O)cc1[N+](=O)[O-])Cc1ccccc1 (centres unmarked) | -38.9%
CCC(C)C(NC(=O)c1ccccc1NC(=O)c1ccco1)C(=O)NNC(=O)c1ccncc1 (centres unmarked) | -13.8%
Cc1ccc(S(=O)(=O)c2cc(N3CCOCC3)nc(-c3ccccc3)n2)cc1 | 3.87%
CCN(CC)c1ccc(/C=N/O)cc1 | 18.3%
CNS(=O)(=O)c1cccc(C(=O)OCC(=O)c2cc(C)n(CC3CCCO3)c2C)c1 (centres unmarked) | -38.6%
CCc1cc(=O)oc2c(C)c(OCC(=O)NCCCN3CCOCC3)ccc12 | -31.8%
Cc1ccc2c(c1)N(CC(=O)NCCCN1C(C)CCCC1C)C(=O)c1cccnc1O2 (centres unmarked) | -3.31%
Cc1cc(C)nc(NC2=NCC(=O)N2c2ccc3c(c2)OCCO3)n1 | 3.75%
C(#CCN1CCOCC1)COCc1ccccc1.Cl | 11.1%
Cl.OC(COCc1ccccc1)CN1CCN(c2ccccc2F)CC1 (centres unmarked) | -45.9%
CCOC(=O)c1cc(C)[nH]c(=S)c1C#N | -23.4%
Oc1ccc(Nc2nc(-c3ccc4ccccc4c3)cs2)cc1 | 1.13%
NC(=O)NC1CCCc2c1[nH]c1ccc(Cl)cc21 (centres unmarked) | 5.54%
CN(CCC#N)CC(=O)Nc1ccc(S(N)(=O)=O)cc1 | 13.3%
CC1=NN(Cc2ccccc2)C(=O)C1C(c1ccccc1)C(C#N)C#N (centres unmarked) | 8.71%
Cn1c(CNC(=O)c2ccco2)nnc1SCC(=O)Nc1ccccc1Cl | -2.04%
CCc1cccc(C)c1N(C(=O)Cn1c(COC)nc2ccccc21)C(C)COC (centres unmarked) | -3.41%
COc1ccc(CCNC(=O)c2cccc(S(=O)(=O)NC(C)c3ccccc3)c2)cc1 (centres unmarked) | 6.04%
CCn1c2c(c3cc(Br)ccc31)CCC/C2=N\O | 5.26%
Clc1ccc2c(N/N=C/c3ccc(Br)cc3)ccnc2c1 | 18.7%

Structure (SMILES) | hERG current change (%, negative = inhibition) at 10uM
CCc1ccc(S(=O)(=O)Nc2cccc(-c3ccc4nncn4n3)c2)s1 | 7.63%
COc1cc(S(=O)(=O)NCCCn2ccnc2)ccc1F | 9.47%
CCCCc1nnc(NC(=O)C2CC(=O)N(c3ccc4c(c3)OCCO4)C2)s1 (centres unmarked) | 11%
C=C(C)CSc1nnc([C@@H](N)Cc2c[nH]c3ccccc23)o1.Cl | 8.43%
Cc1ccccc1N1CC(C(=O)N2CCCCCC2)CC1=O (centres unmarked) | 4.33%
CC1=CC(c2ccccc2)n2ncnc2N1 (centres unmarked) | -0.295%
CC(=O)Oc1ccc2nc(/C=C/c3ccccc3)oc(=O)c2c1 | 19.5%
CCN1CCN(c2ccc(NC(=O)c3ccc(OC)c(S(=O)(=O)N4CCCC4)c3)cc2)CC1 | -6.16%
CCCCN(CCCC)CCNC(=O)CN1C(=O)CSc2ccc(S(=O)(=O)N3CCOCC3)cc21 | -38.8%
COc1ccc(Cl)cc1C(=O)CSc1nnnn1C1CCCC1 | -6.05%
O=C(NCc1ccc2c(c1)OCO2)c1ccc2snnc2c1 | -15.6%
COc1ccc(N2C(=O)CC(Nc3ccc(F)cc3)C2=O)c([N+](=O)[O-])c1 (centres unmarked) | -33%
Cc1c(-c2cc(Br)ccc2O)nc2cc3c(cc2c1C)OCO3.Cl | 13.2%
CC(C)(C)NS(=O)(=O)c1ccc(N2C(=O)c3ccccc3C2=O)cc1 | 2.77%
COCCNC(=O)CCCn1c(=O)c2cc(OC)c(OC)cc2n(CC(=O)Nc2ccc(F)cc2)c1=O | 4.07%
CSc1ccccc1NC(=O)C1CC(c2c(F)cccc2Cl)=NO1 (centres unmarked) | 13.8%
O=C(CNC(=O)c1cc(=O)[nH]c2ccccc12)Nc1ccc(F)c(F)c1 | 15.1%
C=CCn1c(SCC(=O)NCc2ccco2)nc2sc3c(c2c1=O)CCC3 | -13.2%
CCC1CCCCN1C(=O)COC(=O)c1cc2ccccc2cc1O (centres unmarked) | 4.98%
Cc1oc2ccc(NS(=O)(=O)c3ccccc3)cc2c1C(=O)Nc1ccccc1 | 22.5%
COc1cc(C(=O)N[C@H](C(=O)NC2CCCCCC2)C(C)C)cc(OC)c1OC | -12%
Cc1c(C(=O)Oc2ccc(Cl)cc2)n(C)oc1=O | 9.43%
O=C(Nc1cccc(NC(=O)c2sc3ccccc3c2Cl)c1)c1ccco1 | -2.53%

Structure (SMILES) | hERG current change (%, negative = inhibition) at 10uM
CCSc1nc2cc(OC)c(OC)cc2c(=O)n1CCc1ccccc1 | -3.87%
O=C(COc1ccccc1)NCC(c1ccco1)N1CCN(c2ccc(F)cc2)CC1 (centres unmarked) | -41%
O=C(Cn1cc2c(n1)CCCCC2)Nc1ccccc1Br | -26.4%
NS(=O)(=O)c1ccc(NC(=S)NC2CC2)cc1 | 15.6%
CCCCNC(=O)C1CCCN(S(=O)(=O)c2ccc(S(=O)(=O)NCC(C)C)cc2)C1 (centres unmarked) | -6.95%
CCC(C)COC(=O)C(C#N)c1nc2ccccc2nc1N1CCCCC1 (centres unmarked) | -1.25%
CC(=O)Nc1ccc(S(=O)(=O)N2CCC(NC(=O)c3ccco3)CC2)cc1 | 8.46%
N/C(=N\OC(=O)Cc1ccc(-c2ccccc2)cc1)c1ccccn1 | 19.6%
Cc1cc(C(F)F)nn1CC(=O)Nc1cc([N+](=O)[O-])ccc1F | -29.5%
O=S(=O)(Nc1ccccc1)c1ccc(NS(=O)(=O)c2c(F)cccc2F)cc1 | 4.43%
O=C(C(NS(=O)(=O)c1cccs1)c1ccccc1)N1CCN(c2ccccc2F)CC1 (centres unmarked) | -7.86%
Cc1[nH]nc(N=CC2=C(O)CC(C)(C)CC2=O)c1-c1ccccc1 | 0.302%
N#Cc1ccc(CN2CCN(C(=O)c3cccc(S(=O)(=O)N4CCCCCC4)c3)CC2)cc1 | -75.8%
CN(Cc1nccs1)C(=O)CC1C(=O)NCCN1Cc1ccc(-c2ccccc2)cc1 (centres unmarked) | -8.54%
CCN(CC)S(=O)(=O)c1cc(-c2nn(C)c(=O)c3ccccc23)ccc1C | -53.5%
CCOC(=O)CSc1nnc(-c2c[nH]c3ccccc23)n1CC | -10.3%
COc1ccc(NC(=O)N2CCN(CCC#N)CC2)cc1 | 11.2%
S=C(Nc1ccccc1Cl)Nc1ccc(Cl)cc1Cl | 13.9%
O=C(COc1ccccc1)N1CCN=C1SCc1cccnc1 | 21.2%
COc1cccc(C(C[N+](=O)[O-])c2c(C)[nH]n(-c3ccccc3)c2=O)c1 (centres unmarked) | 15.5%
